82 molecules from PubChem BioAssay AID1645887 (National Center for Advancing Translational Sciences (NCATS), 2021) can be followed below.

SMILES strings stand for the structures. Where “and” joins values, the source holds several entries; their conditions need not be identical. Equal values may be shown once. Hit rate of the full screen: of about 16,000 compounds, about 40 (0.2%) were called active. Inconclusive results (about 1%) are left out. Calls follow the shape of the dose curve; as a rule, active = well fitted activation curve with a large enough effect; inconclusive = small, poorly fitted or top-dose-only effect, or another doubt; inactive = no such curve, though single readings can be large or run the other way. The list shows a part of the results. Residues, ends and D or L forms follow the SMILES beside them. *: point of attachment. X3 = NCCCC[C@@H](CN)N*
% is scaled to controls: 0 for no effect and ±100 for the full control effect.

Sequence of UniProt Q8WZA2 (Q8WZA2 whole entry, looked up): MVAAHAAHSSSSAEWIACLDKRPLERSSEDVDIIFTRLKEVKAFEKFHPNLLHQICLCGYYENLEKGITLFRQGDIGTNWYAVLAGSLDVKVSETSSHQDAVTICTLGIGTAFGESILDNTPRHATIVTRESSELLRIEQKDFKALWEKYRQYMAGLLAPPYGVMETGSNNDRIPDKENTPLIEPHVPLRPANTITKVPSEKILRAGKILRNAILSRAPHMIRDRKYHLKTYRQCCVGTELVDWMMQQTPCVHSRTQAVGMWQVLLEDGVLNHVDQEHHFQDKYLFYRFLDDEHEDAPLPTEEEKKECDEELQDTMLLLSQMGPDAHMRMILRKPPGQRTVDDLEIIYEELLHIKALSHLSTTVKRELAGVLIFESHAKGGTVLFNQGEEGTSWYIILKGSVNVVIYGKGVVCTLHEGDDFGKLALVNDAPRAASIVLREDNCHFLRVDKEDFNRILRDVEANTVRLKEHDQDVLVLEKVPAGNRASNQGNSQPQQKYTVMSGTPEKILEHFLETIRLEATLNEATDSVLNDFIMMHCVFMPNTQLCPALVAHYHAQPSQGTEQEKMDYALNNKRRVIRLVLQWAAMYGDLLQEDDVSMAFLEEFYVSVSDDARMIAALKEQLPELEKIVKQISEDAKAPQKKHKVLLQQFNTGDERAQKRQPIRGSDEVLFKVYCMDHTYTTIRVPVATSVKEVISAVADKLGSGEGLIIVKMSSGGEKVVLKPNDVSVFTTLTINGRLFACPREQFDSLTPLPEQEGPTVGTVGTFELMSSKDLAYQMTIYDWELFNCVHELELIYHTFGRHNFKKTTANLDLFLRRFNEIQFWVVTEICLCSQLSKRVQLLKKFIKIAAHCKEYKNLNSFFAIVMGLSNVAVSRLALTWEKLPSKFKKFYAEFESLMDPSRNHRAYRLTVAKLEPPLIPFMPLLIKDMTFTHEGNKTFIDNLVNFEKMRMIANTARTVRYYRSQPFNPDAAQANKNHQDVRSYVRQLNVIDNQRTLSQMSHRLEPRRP

This test deals with Rap guanine nucleotide exchange factor 4 (Homo sapiens) (UniProt Q8WZA2). Put plainly: Validation qHTS for agonist of cAMP-regulated guanine nucleotide exchange factor 4 (EPAC2).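 Also: exchange makes BODIPY-GDP fluorescence drop when released from Rap1B; series mostly up to about 150 µM.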 Particulars: EPAC2 Rap1B BODIPY-GDP exchange, fluorescence; activation: active compounds read high. The essentials:
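Fluorescent exchange assay: 100 nM EPAC2 with 250 nM RAP1B-BODIPY-GDP and 50 uM GDP; compound added, 5 min at room temperature, then read (ex 480/em 540 nm) every 5 min for 30 min. Normalized to 6.5 mM cAMP agonist control.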
(qHTS replaces the single test concentration by a dilution series.)
As to `Oc1ccc(Cl)cc1Sc1cc(Cl)ccc1O`, the activation was inactive: -11.5%.

In the case of `O=c1n(CCCN2CCN(c3cccc(Cl)c3)CC2)nc2ccccn12`, the activation is inactive: -6.91% and inactive: 4.36% and inactive: -21.7%.

In the case of `COC(=O)C[C@H]1c2cc(C(F)(F)F)ccc2S(=O)(=O)N1C1CCCC1`, the activation is inactive: -23.3%.

Take `CC(=O)NCCCCCC(=O)O`: the activation is inactive: 13.4%.

For `O=C(O)c1cc(=O)[nH]c(=O)[nH]1`, the activation was inactive: -4.18%.

With `O=c1c(-c2ccc(Cl)cc2)nc2cnc(Nc3ccccc3)nc2n1C1CC1`, the activation was inactive: -7.24%.

Regarding `CN(Cc1ccco1)c1ncncc1-c1ccoc1`, the activation is inactive: 10.8%.

Take `CCC(=O)c1ccc2c(c1)N(CCCN(C)C)c1ccccc1S2`: the activation was inactive: -9.81% and inactive: -16.9%.

Take `Cc1ccccc1N1CCN(CCc2nnc3n2CCCC3)CC1`: the activation was inactive: -18.4%.

In the case of `Cc1noc(C)c1-c1cc(N(C)C)ncn1`, the activation was inactive: -7.83%.

On to `Cc1nc2ccccn2c(=O)c1CCN1CCC(C(=O)c2ccc(F)cc2)CC1`, for which the activation is inactive: -19.1% and inactive: -25.1%.

As to `CC1(C)C2(Cl)C(Cl)C(Cl)C(Cl)(C(Cl)Cl)C1(Cl)C2Cl` (configuration not stated), the activation was inactive: -16.6%.

On to `Cc1cnc(CNc2ncncc2-c2ccc(N(C)C)cc2)cn1`, for which the activation is inactive: 8.05%.

With `O=C(Nc1ccc(Cl)cc1Cl)[C@@H]1CC=C[C@@H]2CCN(C3CCCCC3)C(=O)[C@@H]21`, the activation was inactive: -19.9%.

Take `Cc1cccc(C)c1NC(=O)c1cc(S(N)(=O)=O)c(Cl)cc1O`: the activation is inactive: 1.01%.

Turning to `COCC(=O)Nc1cc(C(=O)N2CC3CC4CC(C3)CC2C4)c2c(c1)nc(-c1ccncc1)n2C`, the activation was inactive: 2.55%.

As for `CCNc1ncc2nc(-c3ccc(OC)cc3)c(=O)n(Cc3ccc(F)cc3)c2n1`, the activation is inactive: 6.11%.

`CC(=O)N[C@@H](CSC/C=C(\C)CC/C=C(\C)CC/C=C(\C)CCC=C(C)C)C(=O)O`: the activation is inactive: -69.2% and inactive: -10.9%.

Take `O=C(CCNNC(=O)c1ccncc1)NCc1ccccc1`: the activation is inactive: 0.755% and inactive: -13.8%.

In the case of `COc1ccc(C(=O)c2coc3ccc(O)cc23)cc1`, the activation was inactive: 11.4%.

Consider `COc1cc2c(C)c3c4c(cc(OC)c(OC)c4c2cc1OC)CCN3C`, for which the activation was inactive: 7.68%.

In the case of `CCN1CCCC1CNC(=O)c1cnn(-c2ncc(C)c(-c3ccc(F)cc3)n2)c1C(C)C` (configuration not stated), the activation was inactive: -10.9%.

For `CCCCC[C@H](O)/C=C/[C@H]1[C@H](O)CC(=O)[C@@H]1C/C=C\CCCC(=O)O`, the activation is inactive: -6.33%.

Turning to `Cc1cccc(CNc2ncnc3ccc(-c4ccc5c(c4)OCO5)cc23)c1`, the activation is inactive: -0.507%.

For `CC(=O)OC1CC(OC(C)=O)[C@]2(C)C(CC(OC(C)=O)[C@]3(C)C2CC[C@@]2(C)C(c4ccoc4)OC(=O)C4O[C@]432)C1(C)C` (some centres not stated), the activation was inactive: 2.29%.

In the case of `N[C@@H](Cn1ccc(=O)n(Cc2ccccc2C(=O)O)c1=O)C(=O)O`, the activation was inactive: -0.859%.

For `C=C1C2CC[C@]3(CCC4[C@@]5(C)CCC[C@@]4(CN(CCO)C5)[C@@H]3C2)[C@@H]1O` (some centres not stated), the activation was inactive: -12.7%.

As to `CC(C(=O)O)C1CCC2C3CC=C4CC(O)CC[C@@]4(C)C3CC[C@]12C` (some centres not stated), the activation was inactive: -5.25%.

Regarding `Cn1c(=O)c(-c2cccs2)nc2cnc(N3CCOCC3)nc21`, the activation was inactive: -11.2%.

For the molecule `C[C@H](NC(=O)CNC(=O)[C@@H](NC(=O)[C@H](Cc1ccccc1)NC(=O)CNC(=O)CNC(=O)[C@@H](N)Cc1ccccc1)[C@@H](C)O)C(=O)N[C@@H](CCCN=C(N)N)C(=O)N[C@@H](CCCCN)C(=O)N[C@@H](CO)C(=O)N[C@@H](C)C(=O)N[C@@H](CCCN=C(N)N)C(=O)N[C@H](CN)CCCCN` (H-FGGFTGARKSAR-X3), the activation was inactive: 1.52%.

Regarding `COc1ccc(-c2nc3cnc(N4CCOCC4)nc3n(CCc3ccccc3)c2=O)cc1`, the activation was inactive: -20.8%.

In the case of `COc1cccc(-c2nccc(NCc3cccc(C)c3)n2)c1`, the activation is inactive: -40.8%.

Regarding `C=CCN([C@H](C(=O)OC)C(C)C)S(=O)(=O)CCNCc1ccccc1`, the activation was inactive: -37.8%.

Turning to `COCCn1c(=O)c(-c2ccccc2)nc2cnc(Oc3cccc(Cl)c3)nc21`, the activation is inactive: -7.57%.

With `CC1=C(C(=O)OCc2cc(C)on2)N2C(=O)[C@@H](NC(=O)OCc3cc(C)on3)[C@H]2SC1`, the activation was inactive: -7.69%.

With `COc1ccc(CN2[C@@H](CC(=O)O)c3cc(F)ccc3S2(=O)=O)cc1`, the activation is inactive: -13.6%.

Turning to `CN1[C@@H]2CC(OC(=O)[C@H](CO)c3ccccc3)C[C@H]1[C@@H]1O[C@@H]12` (some centres not stated), the activation was inactive: 12.4% and inactive: 1.58%.

As for `CCNc1ncc2nc(-c3ccc(Cl)cc3)c(=O)n(C3CC3)c2n1`, the activation was inactive: -10.6%.

In the case of `CCC1CN(Cc2cccc3nccnc23)Cc2cc(OC)ccc2O1` (configuration not stated), the activation was inactive: -6.49%.

For `COCC(=O)N1CCC2(CC1)CN(C(=O)Nc1ccc(OC)cc1)C2`, the activation was inactive: -2.81%.

As to `COc1ccc2c3c1OC1C[C@@H](O)C=C[C@@]31CCN(C)C2` (some centres not stated), the activation is inactive: -4.02%.

For `O=C(c1cnccn1)N1CCC2(CCCN(c3ncccn3)C2)CC1`, the activation is inactive: -3.86%.

Turning to `c1cn(-c2ncnc3ccc(-c4ccoc4)cc23)cn1`, the activation is inactive: -14.5%.

For `CC/C(=C/c1ccccc1OC)c1cc(-c2ccccc2)cc2oc3ccccc3c12`, the activation is inactive: 5.25%.

As to `Cc1cc(C(=O)NCC2CCC3(CCN(Cc4ccc(-c5ccccc5)cc4)CC3)O2)n(C)n1` (configuration not stated), the activation is inactive: -0.57%.

Regarding `CC(=O)c1ccc[nH]1`, the activation is inactive: -1.71%.

For the molecule `O=c1c(-c2ccccc2)coc2cc(O)cc(O)c12`, the activation was inactive: -13.2%.

On to `Nc1nc(N)c(N=O)c(OCC2CCCCC2)n1`, for which the activation is inactive: -8.47%.

In the case of `CO[C@@H]1[C@H](OC(=O)/C=C/C=C/C=C/C=C/C(=O)O)CC[C@]2(CO2)[C@H]1[C@@]1(C)O[C@@H]1CC=C(C)C`, the activation was inactive: -34.1%.

As to `NC(=O)c1cnccn1`, the activation is inactive: -2.36% and inactive: -1.42% and inactive: -27%.

Regarding `Cc1c(-c2ccc(Cl)cc2)noc1C1CCN(CCc2ccccc2)CC1`, the activation was inactive: -12.1% and inactive: 9.41%.

`O=c1c(-c2ccc(F)cc2)nc2cnc(Nc3ccccc3)nc2n1C[C@H]1CCCO1`: the activation is inactive: 3.28%.

Take `NC(C(=O)O)c1cc(O)c(Cl)c(O)c1` (configuration not stated): the activation was inactive: 4.03%.

On to `CC(C)(C)CC(C)(C)c1cc(Cc2cc(C(C)(C)CC(C)(C)C)cc(-n3nc4ccccc4n3)c2O)c(O)c(-n2nc3ccccc3n2)c1`, for which the activation is inactive: -3.67%.

`Cc1nc2cnc(Oc3cccc(Cl)c3)nc2n(Cc2ccc(F)cc2)c1=O`: the activation was inactive: -2.25%.

Turning to `CCn1c(-c2ccccc2F)nc2cc(NC(C)=O)cc(C(=O)N(C)Cc3c(C)nc4ccccn34)c21`, the activation was inactive: -1.69%.

On to `CS(=O)(=O)N1CCC[C@@]2(CCN(Cc3nccs3)C2)C1`, for which the activation is inactive: -15.8%.

Take `CC(=O)[O][Al][O]C(C)=O`: the activation is inactive: -13.4%.

With `O=C(Nc1ccccc1)N1CC2(CCN(S(=O)(=O)c3ccccc3)CC2)C1`, the activation was inactive: -8.28%.

For `CCCCCCCCOc1ccc(C(=O)c2ccccc2)c(O)c1`, the activation was inactive: -5.77%.

`CCN(CC)C(=O)[C@]1(c2ccccc2)C[C@@H]1CN`: the activation is inactive: -20.9%.

In the case of `NC1CONC1=O` (configuration not stated), the activation was inactive: -20.7%.

As for `Cc1[nH]c(=O)c(C#N)cc1-c1ccc2nccn2c1`, the activation is inactive: -16.1% and inactive: -40.6%.

As for `CCCCCCCCCCCC[n+]1ccc(C)c2ccccc21`, the activation was inactive: -20.5%.

`COc1ccc2[nH]cc(CCNc3cc(-c4cccc(C#N)c4)ncn3)c2c1`: the activation is inactive: 4.73%.

For the molecule `CN(C)c1ncc2nc(-c3ccc(Cl)cc3)c(=O)n(C[C@H]3CCCO3)c2n1`, the activation is inactive: 3.41%.

As for `Cc1cc2nccc(C)c2cc1C`, the activation is inactive: -10.9%.

With `CC(=O)O[C@H]1C(=O)[C@@]2(C)[C@H]([C@H](OC(=O)c3ccccc3)[C@]3(O)C[C@H](OC(=O)[C@H](O)[C@@H](NC(=O)c4ccccc4)c4ccccc4)C(C)=C1C3(C)C)[C@]1(OC(C)=O)CO[C@@H]1C[C@@H]2O`, the activation was inactive: -0.237% and inactive: -9.58%.

For the molecule `COc1cccc(Cn2c(=O)c(-c3ccccc3)nc3cncnc32)c1`, the activation is inactive: 5.45%.

`COc1ccc(/C=C/C(=O)/C=C/c2ccc(OC)cc2OC)c(OC)c1`: the activation was inactive: -29.5%.

With `C[S+](C)CCC(N)C(=O)O` (configuration not stated), the activation is inactive: 4.13%.

Regarding `Cc1ccc2ccccc2n1`, the activation was inactive: -24.8%.

Turning to `COc1cc(=O)n2c(c1C(=O)N(C)Cc1nonc1C)CCN(C(=O)c1ccc(C)c(C)c1)CC2`, the activation is inactive: -14.5%.

`CC1=C(C(=O)O)N2C(=O)C(NC(=O)C(N)c3ccccc3)C2SC1` (configuration not stated): the activation was inactive: -10.1%.

On to `CN(C(Cc1ccc(OS(=O)(=O)c2cccc3cnccc23)cc1)C(=O)N1CCN(c2ccccc2)CC1)S(=O)(=O)c1cccc2cnccc12` (configuration not stated), for which the activation was inactive: -6.95%.

In the case of `Cc1cnc(CNc2ccnc(-c3cccc(C#N)c3)n2)cn1`, the activation is inactive: -2.78%.

In the case of `COc1ccccc1CN1CCCC2(CCN(C(=O)c3cccn3C)CC2)C1`, the activation is inactive: 0.831%.

For `CCCN(CCC)CCc1cccc2c1CC(=O)N2`, the activation was inactive: -23.9% and inactive: -20%.

Regarding `N=C(N)c1ccc(N)cc1`, the activation is inactive: -26.6%.

Take `CCNc1ncc2nc(CCc3ccccc3)c(=O)n(Cc3ccc(F)cc3)c2n1`: the activation was inactive: 5.59%.

As for `Cc1noc(C)c1C(=O)N1CCC[C@@]2(CCN(C(=O)Nc3cccc(F)c3)C2)C1`, the activation was inactive: -19.7%.

For `C/C=C/c1ccc(OC)cc1`, the activation is inactive: 5.75% and inactive: -0.148%.
